Assay results reported in article PMC4336329 (PLoS ONE, 2015).
Among all 310,000 compounds or so, about 14,000 (4.5%) showed an effect of 50% or more. The effect is printed as a negative number. Some of the results follow.

target: human ether-à-go-go-related gene (hERG) potassium channel (human, UniProt Q12809); assay: primary screen, population patch clamp on CHO cells stably expressing hERG
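Note: peak tail current of the secondary pulse compared with the same well before compound.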

human ether-à-go-go-related gene (hERG) potassium channel, sequence (Q12809 whole entry, looked up): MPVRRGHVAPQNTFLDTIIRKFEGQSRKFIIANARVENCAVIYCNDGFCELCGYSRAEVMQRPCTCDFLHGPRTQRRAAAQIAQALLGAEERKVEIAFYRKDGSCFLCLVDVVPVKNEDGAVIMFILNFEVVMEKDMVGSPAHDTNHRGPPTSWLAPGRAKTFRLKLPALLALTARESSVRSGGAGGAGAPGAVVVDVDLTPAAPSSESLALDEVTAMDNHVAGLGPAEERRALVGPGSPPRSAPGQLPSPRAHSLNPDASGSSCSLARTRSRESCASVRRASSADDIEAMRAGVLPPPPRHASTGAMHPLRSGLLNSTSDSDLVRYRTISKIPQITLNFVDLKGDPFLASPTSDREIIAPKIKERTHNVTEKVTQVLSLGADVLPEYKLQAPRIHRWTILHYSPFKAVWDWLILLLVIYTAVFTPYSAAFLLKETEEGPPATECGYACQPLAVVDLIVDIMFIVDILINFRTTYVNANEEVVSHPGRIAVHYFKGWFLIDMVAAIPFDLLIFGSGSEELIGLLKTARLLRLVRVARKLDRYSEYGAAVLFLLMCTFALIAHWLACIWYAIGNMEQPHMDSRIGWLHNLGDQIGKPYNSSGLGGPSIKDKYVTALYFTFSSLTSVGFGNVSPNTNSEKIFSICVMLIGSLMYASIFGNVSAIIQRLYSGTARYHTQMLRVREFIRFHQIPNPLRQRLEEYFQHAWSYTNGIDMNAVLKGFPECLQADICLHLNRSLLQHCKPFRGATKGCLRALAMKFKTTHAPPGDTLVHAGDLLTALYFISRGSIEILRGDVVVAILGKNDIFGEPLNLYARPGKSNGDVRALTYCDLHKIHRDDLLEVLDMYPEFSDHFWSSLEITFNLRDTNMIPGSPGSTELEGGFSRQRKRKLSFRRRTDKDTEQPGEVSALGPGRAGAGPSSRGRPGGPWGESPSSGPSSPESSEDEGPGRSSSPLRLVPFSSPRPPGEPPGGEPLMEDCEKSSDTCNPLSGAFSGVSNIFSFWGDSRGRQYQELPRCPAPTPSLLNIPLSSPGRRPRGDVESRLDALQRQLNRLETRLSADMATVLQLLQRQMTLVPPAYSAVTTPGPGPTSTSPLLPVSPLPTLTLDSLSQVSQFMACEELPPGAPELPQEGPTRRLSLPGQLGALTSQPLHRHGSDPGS

Structure (SMILES)	hERG current change (%, negative = inhibition) at 10uM
CC(C)c1ccc(NC2CCCN(C(=O)c3ccoc3)C2)cc1 (stereo not drawn)	4.11%
COc1ccccc1CCN=C(N)NS(=O)(=O)c1ccccc1	-10.1%
CCCCOC(=O)c1ccc(OC(=O)c2cccnc2)cc1	1.05%
CC(=O)Nc1ccc(NC(=O)CS(=O)(=O)Cc2ccccc2)cc1	-4.5%
CC(C)NC(=O)CSc1ncccc1-c1nc2ccccc2[nH]1	-17.1%
COc1cc(/C=N/NC(=O)COc2cccc(F)c2)ccc1OS(=O)(=O)c1ccc(C)cc1	5.42%
Cc1ccc(C(=O)N2CCN(c3ccccc3F)CC2)cc1S(=O)(=O)N1CCOCC1	-3.41%
Cl.OCCN1CCN(CCOc2ccccc2-c2ccccc2)CC1	-24.1%
COc1ccc2sc(C)[n+](C)c2c1.[I-]	22.9%
Cc1ccc(N2C(=O)N3[C@H](c4ccc(Br)cc4)[C@@H]4C(=O)N(C(C)(C)C)C(=O)[C@@H]4[C@]3(C)C2=O)cc1	-0.635%
CCCn1c(SC/C(O)=C(\C#N)c2nc3ccccc3[nH]2)n[nH]c1=O	14.8%
COc1ccc(OC)c(N=Cc2c(O)[nH]c(=O)[nH]c2=O)c1	16.2%
COc1cc(COCC(O)CN2CCc3ccccc3C2)cc(OC)c1OC.Cl (stereo not drawn)	-21.7%
CC(C)(C)n1c(O)c(C=Nc2ccc3c(c2)CCC3)c(=O)[nH]c1=O	0.74%
O=C(CCN=C1NS(=O)(=O)c2ccccc21)OCC(=O)c1ccccc1	-26.9%
CC(C)(C)NC(=O)COC(=O)c1cncc(Br)c1	8.7%
CC(/C=C1\SC(=O)N(CC(=O)Nc2cccc(O)c2)C1=O)=C\c1ccccc1	18.6%
Cc1ccccc1Cn1c(CN2CCN(c3ccc(F)cc3)CC2)nc2c1c(=O)n(C)c(=O)n2C	-39.7%
COCCn1c(=NC(=O)c2ccc3c(c2)OCCO3)sc2cc(S(N)(=O)=O)ccc21	4.59%
CCCCn1c(N)c(N(CCOC)C(=O)CSCC(=O)Nc2cccc(C)c2)c(=O)[nH]c1=O	11.5%
CCN(CC)S(=O)(=O)c1ccc(Nc2ccc(-c3ccc4c(c3)OCCO4)nn2)cc1	10.9%
Cn1ccsc1=NC(=O)c1cccc(OC(F)F)c1	-28.4%
CC(=O)NC1(c2ccc(F)cc2)CCN(C(=O)c2c(F)cccc2F)CC1	6.96%
COc1ccccc1C(=O)Nc1cccnc1	6.75%
Cc1cc[n+](C2=C([O-])c3ccccc3C(=O)/C2=N\S(=O)(=O)c2cccs2)cc1C	-16.6%
COC(=O)c1cnn2c3c(c(C)nc12)CCCC3	1.88%
O=C(Nc1ccn(Cc2ccccc2F)n1)c1ccc(COc2ccc(Cl)cc2Cl)o1	13.6%

Structure (SMILES)	hERG current change (%, negative = inhibition) at 10uM
COc1cc(Cl)c(C)cc1NC(=O)c1ccc2c(SCC(=O)O)c3c(nc2c1)CCCC3	24.3%
COc1cccc(COC(=O)CCNC(=O)c2ccc(Br)cc2)c1OC	-13.6%
CC(C)C(C)(NC(=O)c1cccn(Cc2ccc3c(c2)OC(F)(F)O3)c1=O)C(N)=O (stereo not drawn)	-3.89%
O=C(CCN1C(=O)c2ccccc2S1(=O)=O)Nc1cccc(F)c1	4.62%
CCN(CC)CCNC(=O)c1ccc(-n2c(C)cc3c2CCCC3=O)cc1	9.62%
Cc1cc(-c2ccc(C)c(S(=O)(=O)NCCCN3CCN(c4ccccc4F)CC3)c2)on1	10.3%
COC(=O)c1[nH]c2ccccc2c1NC(=O)CNC1CCCCC1	7.25%
O=C(NCC(c1ccco1)N1CCCCC1)c1cccc(NS(=O)(=O)c2ccc(Br)cc2)c1 (stereo not drawn)	-39.1%
CCn1c2c(c3cc(Cl)ccc31)CCCC2=O	3.71%
COc1ccc(-c2nc3ccccc3o2)cc1NC(=O)CSc1ccc(Cl)cc1	34.8%
N=C(SC1CC(=O)N(c2ccc(F)cc2)C1=O)N1N=C(c2ccccc2)CC1c1ccccc1 (stereo not drawn)	42.4%
O=C(CNCc1ccco1)Nc1cccc(S(=O)(=O)N2CCCCC2)c1.O=C(O)C(=O)O	-13.1%
CCn1c(CC(=O)Nc2ccccc2)nnc1SCC(=O)NC1CCCC1	-0.93%
C/C(=N/Nc1ccc([N+](=O)[O-])cc1)c1ccc(C)cc1C	-5.26%
c1ccc(-c2csc(Nc3ccccn3)n2)cc1	4.69%
O=c1c(Cl)c(NCCO)ncn1-c1ccccc1	1.88%
O=C(Nc1nc2cc3c(cc2s1)OCO3)c1ccc(N2C(=O)CCC2=O)cc1	12.2%
CC(C)=CC1C(C(=O)Nc2ccc(S(=O)(=O)N3CCOCC3)cc2)C1(C)C (stereo not drawn)	-6.44%
[Br-].c1ccc(C[n+]2csc3ccccc32)cc1	16.1%
COc1cc(C(C)=O)ccc1COc1ccc(C(=O)OCC(N)=O)cc1OC	-18.4%
CCOC(=O)c1cnc2ccc(C(=O)OC)cc2c1NCCc1ccc(OC)c(OC)c1	-3.95%
S=C(Nc1cccnc1)N1CCc2ccccc21	2.47%
CC(C)c1ccccc1OCCCCCN1CCOCC1	-13.5%
CCOc1ccc(N2C(=O)CC(N(CCc3ccc(OC)cc3)C(=O)c3cccc(F)c3)C2=O)cc1 (stereo not drawn)	-63%
Cc1cc(C(F)(F)F)nc(-n2cc(-c3ccccc3)nn2)n1	4.21%
COc1ccc(Nc2nc(N)nc(CSc3n[nH]c(-c4ccccc4)n3)n2)cc1	-4.25%
CCCC(CCC)C(=O)OC[N+](C)(C)CCOC(=O)C(O)(c1ccccc1)C1CCCC1.[Cl-] (stereo not drawn)	-5.4%
